Test results from the supplement of paper PMC12217912.
Some of the results follow. The full chains were built here from the parent and the listed change. Values near 0.05 are background.

B1: TEV protease; numbered along this chain (parent)
chain: MGESLFKGPRDYNPISSSICHLTNESDGHTTSLYGIGFGPFIITNKHLFRRNNGTLVVQSLHGVFKVKDTTTLQQHLVDGRDMIIIRMPKDFPPFPQKLKFREPQREERICLVTTNFQTKSMSSMVSDTSCTFPSGDGIFWKHWIQTKDGQCGSPLVSTRDGFIVGIHSASNFTNTNNYFTSVPKNFMELLTNQEAQQWVSGWRLNADSVLWGGHKVFMVKPEEPFQPVKEATQL

Variants of: B1
Test: raw area under fraction-flipped curve 0-4 h after induction (AUC4h, not background-subtracted), DNA-recorder readout of cleavage of the substrate (dimensionless); higher = more cleavage of the substrate by the protease variant
Settings: temperature: 34 °C; time window: 0-4 h after rhamnose induction
Method: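 In vivo DNA recorder in E. coli TOP10(DE3) ΔrhaA at 34 °C. Each TEVp single-site mutant (parent TEVp 0) is paired with a single-site variant of the 7-mer TEVs (canonical ENLYFQ|S). The substrate sits between flexible linkers in a Bxb1-sfGFP-TEVs-SsrA fusion, so cleavage stabilises Bxb1 and speeds flipping of a recombination array, read by NGS. The value is the raw area under the fraction-flipped curve over 0-4 h after rhamnose induction (AUC4h), with ≥20 reads per time point. It is not background-subtracted; inactive controls average about 0.047.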
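Note: Bxb1 expression induced with 0.2% (w/v) L-rhamnose at OD600 near 0.5, cultures sampled hourly, flipped fraction per protease–substrate barcode pair counted by paired-end Illumina sequencing.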

Row | Variant | area with substrate ENLYFAS | area with substrate ENLYFCS | area with substrate ENLYFFS | area with substrate ENLYFHS | area with substrate ENLYFIS | area with substrate ENLYFKS | area with substrate ENLYFLS | area with substrate ENLYFMS | area with substrate ENLYFNS | area with substrate ENLYFPS | area with substrate ENLYFRS | area with substrate ENLYFTS | area with substrate ENLYFVS | area with substrate ENLYFYS | area with substrate ENLYFSS | area with substrate ENLYFES | area with substrate ENLYFGS | area with substrate ENLYFDS | area with substrate ENLYFWS
1 | L73T | 0.0505 | 0.0535 | 0.0465 | 0.0547 | 0.0492 | 0.0453 | 0.06 | 0.0567 | 0.0404 | 0.056 | 0.0178 | 0.0588 | 0.0514 | 0.05 | – | – | – | – | –
2 | L73W | 0.0593 | – | – | 0.0596 | 0.0672 | – | – | – | 0.0761 | 0.0681 | – | 0.0683 | 0.0463 | 0.0575 | – | – | – | – | –
3 | Q74R | 0.0594 | – | 0.0613 | – | 0.0637 | – | 0.0618 | 0.0621 | 0.0635 | 0.0437 | 0.0584 | 0.0491 | – | 0.0569 | 0.0569 | – | – | – | –
4 | L77E | 0.0648 | – | 0.0604 | – | 0.0593 | 0.0583 | – | 0.061 | 0.0635 | 0.058 | 0.0524 | 0.0741 | – | – | 0.06 | 0.0538 | 0.0998 | – | –
5 | L77G | 0.0472 | – | 0.091 | 0.0687 | 0.0518 | 0.0712 | – | 0.0575 | 0.0528 | 0.0628 | 0.0674 | – | – | – | 0.0442 | 0.0517 | – | 0.0476 | –
6 | D79H | 0.0679 | – | 0.058 | 0.0425 | 0.0501 | – | – | – | – | – | 0.0523 | 0.0518 | – | 0.0929 | 0.0579 | 0.055 | 0.0638 | – | 0.0609
7 | R81F | 0.0625 | 0.0601 | – | 0.0738 | 0.0657 | 0.0543 | 0.0576 | – | 0.0533 | 0.0504 | 0.0634 | 0.0592 | – | 0.0631 | – | 0.0609 | 0.0582 | – | 0.0607
8 | R81M | 0.0591 | 0.0538 | 0.0684 | – | 0.0596 | 0.0689 | – | 0.057 | 0.0677 | 0.0684 | – | 0.0552 | 0.0667 | – | – | 0.0705 | 0.0758 | – | 0.0556
9 | D82G | 0.0338 | – | 0.0614 | – | 0.0553 | 0.0959 | 0.0619 | 0.0607 | 0.0592 | 0.0499 | 0.0607 | 0.0602 | – | – | 0.0519 | 0.0682 | 0.0283 | – | 0.0453
10 | M83G | 0.0382 | 0.0416 | 0.0621 | – | 0.0512 | 0.0482 | 0.044 | 0.0523 | – | 0.052 | – | 0.0502 | – | 0.0535 | – | – | – | 0.0609 | –
11 | M83K | 0.0382 | 0.0336 | 0.046 | 0.0606 | 0.0452 | 0.0541 | – | 0.0329 | 0.046 | 0.0402 | 0.0542 | – | 0.0434 | – | – | 0.0584 | – | 0.0547 | –
12 | I86D | 0.0454 | – | 0.0383 | – | 0.0331 | 0.043 | – | 0.0399 | – | – | 0.0224 | 0.0278 | – | – | – | – | – | – | 0.0559
13 | I86W | 0.0513 | 0.0396 | 0.0678 | 0.0526 | 0.0485 | – | 0.0743 | 0.0446 | 0.0548 | 0.0547 | – | 0.0625 | – | 0.0323 | – | 0.0555 | – | 0.063 | 0.0598
14 | P89H | 0.0617 | – | 0.059 | – | – | 0.0531 | – | 0.0611 | – | 0.0524 | – | 0.0614 | 0.0691 | 0.0449 | – | – | – | – | –
15 | D91F | 0 | – | 0.0641 | 0.0616 | 0.0548 | 0.0668 | 0.0503 | 0.0706 | – | 0.064 | – | 0.0644 | – | 0.0545 | – | – | – | 0.0506 | 0.0612
